In PubChem BioAssay AID2675 (National Center for Advancing Translational Sciences (NCATS), 2010):
Out of some 280,000 compounds screened, about 100 (0.036%) were called active. The shares of active, inactive and inconclusive entries below differ from those in the screen. Calls follow the shape of the dose curve; as a rule, active = well fitted inhibition curve with a large enough effect in the signal ratio, with a control signal flat (not every such curve was filed as active); inconclusive = small, poorly fitted or top-dose-only effect, or effect the other way, or a change in a side signal; inactive = no such curve, though single readings can be large or run the other way; the % refers to the signal ratio. Potencies beside an inconclusive call are fits to weak or partial responses and may not hold up. “Side channel” marks fits to a control or component signal instead of the main read-out.

Target: Muscleblind-like protein 1 (Homo sapiens) (UniProt Q9NR56)
Assay: qHTS Assay for Inhibitors of MBNL1-poly(CUG) RNA binding
Settings: TR-FRET MBNL1-His/biotin-(CUG)12 binding, 665/545 ratio; activity change, negative = inhibition: at 57.5 µM (top of the series)
How it was run: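 Compound titration spanned 92 nM–58 uM against the MBNL1-His/biotin-(CUG)12 complex. After 60 min at room temperature with 5 nM streptavidin-XL665 and 0.055 ng/ul terbium anti-His, ratiometric 665/545 nm emission (Ex 340 nm) normalized to controls.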
% is scaled to controls: 0 for no effect and ±100 for the full control effect; potency is read from the fitted curve at half-maximal effect; tags tell the direction and shape of the fitted curve or compound fluorescence and quenching.

UniProt Q9NR56, sequence (Q9NR56 whole entry, looked up): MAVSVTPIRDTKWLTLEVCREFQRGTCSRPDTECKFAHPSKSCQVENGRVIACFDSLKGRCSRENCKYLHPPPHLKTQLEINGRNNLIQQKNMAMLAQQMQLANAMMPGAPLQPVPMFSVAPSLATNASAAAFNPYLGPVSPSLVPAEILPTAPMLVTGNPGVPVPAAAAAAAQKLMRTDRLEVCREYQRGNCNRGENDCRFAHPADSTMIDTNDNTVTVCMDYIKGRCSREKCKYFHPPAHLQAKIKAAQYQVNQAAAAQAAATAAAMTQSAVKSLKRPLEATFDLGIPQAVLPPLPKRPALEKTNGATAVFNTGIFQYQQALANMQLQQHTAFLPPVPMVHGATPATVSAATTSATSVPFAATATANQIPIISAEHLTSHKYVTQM

| SMILES | Potency | activity change, negative = inhibition |
| --- | --- | --- |
| CCOC(=O)c1cc(CC)sc1/N=C/C1C(=O)CCCC1=O | inconclusive: 25.1 µM [quencher, side channel, single point] | – |
| COc1cccc2c(=O)c3c(cnn3C)n(C)c12 | inconclusive: 14.1 µM [quencher, side channel, partial curve] | – |
| CCn1c(-c2cc3ccccc3cc2O)n[nH]c1=S | – | inactive: 12.1% |
| CC(C)OC(=O)c1ccc2nc3ccccc3nc2c1 | inconclusive: 3.16 µM [quencher, side channel, full curve] | – |
| CSc1nsc(/C=C/Nc2cccc(Cl)c2)c1C#N | – | inactive: 45.8% |
| Cc1nc2ccccc2n1CC(=O)N/N=C\C=C\c1ccccc1 | inconclusive: 14.1 µM [quencher, side channel, partial curve] | – |
| O=C1OC(/C(=C\NCc2ccccc2)[N+](=O)[O-])c2ccccc21 (stereo not drawn) | – | inactive: 6.17% |
| O=C(NCc1ccccc1)c1ccc2nccnc2c1 | inconclusive: 17.8 µM [quencher, side channel, partial curve] | – |
| C/C(=N\NC(=O)c1c[nH]c2ccccc12)c1ccco1 | inconclusive: 31.6 µM [quencher, side channel, single point] | – |
| CS(=O)(=O)N(CCC#N)Cc1ccc(/C=C2\C(=O)Nc3ccccc32)o1 | inconclusive: 44.7 µM [quencher, side channel, single point] | – |
| COc1ccc(NC(=S)N2CCNC(=O)C2CC(=O)Nc2ccc(C)cc2)cc1 (stereo not drawn) | inconclusive: 35.5 µM [fluorescent, side channel, single point] | – |
| O=C(Nc1ccc(NS(=O)(=O)c2ccc([N+](=O)[O-])cc2)cc1)c1ccco1 | inconclusive: 7.08 µM [quencher, side channel, partial curve] | – |
| Cc1cc(C)nc(SCNC(=O)c2ccc(F)cc2)n1 | – | inactive: -6.1% |
| CCN=C1Sc2nc3ccc(OCC)cc3cc2CN1CCOC | – | inactive: 9.12% |
| COCC(C)OC(=O)c1c(N)n(CCCN2CCOCC2)c2nc3ccccc3nc12 (stereo not drawn) | inconclusive: 25.1 µM [quencher, partial curve] | – |
| COc1cccc(-n2nc(C(=O)O)c3ccccc3c2=O)c1 | inconclusive: 5.62 µM [quencher, side channel, single point] | – |
| CNc1ccc(S(=O)(=O)NCC(=O)NCCCc2ccccc2)cc1[N+](=O)[O-] | inconclusive: 0.891 µM [quencher, side channel, full curve, poor fit] | – |
| COc1ccc(/C=N/NC(=O)c2cc(-c3ccccc3)nc3ccccc23)c(C(=O)O)c1OC | – | inactive: 10.5% |
| CC1(C)CC(=O)C(C=NCCN2CCN(C(=O)c3ccc(F)cc3)CC2)=C(O)C1 | inconclusive: 1.78 µM [quencher, side channel, full curve] | – |
| CCCS(=O)(=O)c1c(S(=O)(=O)CCC)c2c(N)cccn2c1C(=O)c1ccc(F)cc1 | inconclusive: 39.8 µM [quencher, side channel, single point] | – |

| SMILES | Potency | activity change, negative = inhibition |
| --- | --- | --- |
| CN1C(=O)S/C(=C\c2ccc(-n3cncn3)cc2)C1=O | inconclusive: 2.82 µM [quencher, side channel, full curve] | – |
| Cc1cc(Br)ccc1NC(=O)CCN1C(=O)c2ccncc2C1=O | inconclusive: 15.8 µM [quencher, partial curve] | – |
| COc1ccccc1N1CCN(S(=O)(=O)c2cccc3nsnc23)CC1 | inconclusive: 7.94 µM [quencher, side channel, partial curve] | – |
| O=C(c1ccc(N2CCCCC2)c([N+](=O)[O-])c1)N(c1ccccn1)c1ccccn1 | inconclusive: 22.4 µM [quencher, side channel, partial curve] | – |
| O=C1NCCc2c1[nH]c1ccc([N+](=O)[O-])cc21 | inconclusive: 15.8 µM [quencher, side channel, partial curve] | – |
| Cc1ccc(N2C(=O)CSCC2=O)cc1 | – | inactive: -1.44% |
| CC(=O)NC(c1cccs1)c1cc([N+](=O)[O-])c2cccnc2c1O (stereo not drawn) | inconclusive: 39.8 µM [quencher, side channel, single point] | – |
| O=C(O)C1CCC(N2C(=O)c3cccc([N+](=O)[O-])c3C2=O)CC1 (stereo not drawn) | inconclusive: 14.1 µM [quencher, side channel, partial curve] | – |
| Cc1ccc2nc(-c3ccc(NC(=O)CSCC(=O)O)cc3)sc2c1 | inconclusive: 14.1 µM [quencher, side channel, partial curve] | – |
| CC(=O)N1CCc2cc(S(=O)(=O)CCC(=O)N3CCN(c4ccccn4)CC3)ccc21 | inconclusive: 25.1 µM [quencher, side channel, single point] | – |
| CN(CC(=O)Nc1ccc(F)cc1)C(=O)c1cccc(S(=O)(=O)N2CCN(c3ccccc3)CC2)c1 | – | inactive: 1.08% |
| CC(=O)c1ccc([N+](=O)[O-])c(CS(=O)(=O)c2ccccc2)c1 | inconclusive: 2.51 µM [quencher, full curve, poor fit] | – |
| COc1ccc(-c2cn3cccnc3n2)cc1NC(=O)c1cc(OC)c(OC)c(OC)c1 | inconclusive: 20 µM [quencher, side channel, partial curve] | – |
| CC1CCCN(c2nc3c(c(=O)[nH]c(=O)n3C)n2CCCc2ccccc2)C1 (stereo not drawn) | inconclusive: 0.562 µM [quencher, side channel, single point] | – |
| O=C(c1cccc(F)c1)N1CCN(c2ccc([N+](=O)[O-])c(N3CCCCC3)c2)CC1 | inconclusive: 14.1 µM [quencher, side channel, partial curve] | – |
| Cc1ccc(NC(=O)CN2C(=O)NC3(CCCc4ccccc43)C2=O)c([N+](=O)[O-])c1 (stereo not drawn) | inconclusive: 31.6 µM [quencher, side channel, partial curve] | – |
| O=c1c2ccccc2c(C=NC2CCS(=O)(=O)C2)c(O)n1-c1ccccc1 (stereo not drawn) | inconclusive: 15.8 µM [quencher, side channel, partial curve] | – |
| O=C(Nc1ccc(Cl)cn1)c1cccc(S(=O)(=O)N2CCCC2)c1 | – | inactive: -6.98% |
| COCCN(C(=O)c1ccco1)c1nnc(-c2ccc(F)cc2)s1 | – | inactive: -7.43% |
| CC(C)CNC(=O)CC(=O)N/N=C/c1ccc(Br)cc1 | inconclusive: 17.8 µM [quencher, side channel, partial curve] | – |

| SMILES | Potency | activity change, negative = inhibition |
| --- | --- | --- |
| COc1cccc(OC)c1NC(=O)C1CCCN1C(=O)NCc1ccccc1 (stereo not drawn) | inconclusive: 7.08 µM [quencher, side channel, single point] | – |
| COCCCn1c(=N)c(C(=O)NCC2CCCO2)cc2c(=O)n3cccc(C)c3nc21 (stereo not drawn) | inconclusive: 0.891 µM [quencher, side channel, partial curve] | – |
| O=C(NCCCN1CCOCC1)C(=O)N/N=C/c1cccc2ccccc12 | inconclusive: 15.8 µM [quencher, side channel, partial curve] | – |
| COCC(=O)N(C)c1nnc(-c2cnc(C)cn2)s1 | inconclusive: 25.1 µM [quencher, single point] | – |
| Cc1ccc(NS(=O)(=O)c2ccc(NC(=O)CN(c3cc([N+](=O)[O-])ccc3C)S(C)(=O)=O)cc2)c(C)c1 | inconclusive: 2.82 µM [quencher, side channel, single point] | – |
| O=C(N/N=C1\CCCc2c1[nH]c1ccc([N+](=O)[O-])cc21)c1ccncc1 | inconclusive: 0.1 µM [fluorescent, side channel, full curve, poor fit] | – |
| CCOC(=O)N1CCN(C(=O)CN(Cc2ccccc2)S(C)(=O)=O)CC1 | – | inactive: 1.22% |
| O=C(O)c1ccccc1N1C(=O)c2cccc3cccc(c23)C1=O | inconclusive: 4.47 µM [quencher, side channel, partial curve] | – |
| Nc1c(/C=C2/C=CC(=O)C(O)=C2)c(=O)nc2sc(CC(=O)N3CCCCC3)nn12 | inconclusive: 28.2 µM [quencher, side channel, single point] | – |
| Cc1ccc(SCC(=O)NN2C(=O)c3ccccc3C2=O)cc1 | inconclusive: 31.6 µM [quencher, side channel, partial curve] | – |
| O=C(NNC(=S)NC(=O)c1ccccc1)c1ccc([N+](=O)[O-])cc1 | inconclusive: 14.1 µM [quencher, side channel, partial curve] | – |
| Cc1cc(NC(=O)c2cc(-c3ccc(C)s3)nc3ccccc23)no1 | – | inactive: 109% |
| CCOC(=O)CC(NC(=O)c1cc2ccccc2oc1=O)c1cccc([N+](=O)[O-])c1 (stereo not drawn) | inconclusive: 2.82 µM [quencher, side channel, single point] | – |
| O=C(c1ccc(Br)o1)N1CCN(c2ccc3nnc(-c4ccc(F)cc4)n3n2)CC1 | inconclusive: 0.891 µM [quencher, side channel, full curve, poor fit] | – |
| COc1ccc(C(C(=O)NC2CCCC2)N(C(=O)c2ccoc2C)c2ccc(C)cc2)cc1 (stereo not drawn) | inconclusive: 31.6 µM [quencher, side channel, single point] | – |
| CC1=C(C#N)C(=O)NC(=O)/C1=C/c1ccc(-c2ccc(S(N)(=O)=O)cc2)o1 | inconclusive: 28.2 µM [quencher, single point] | – |
| Cc1c(-c2ccco2)[n+](=O)c2c(n1[O-])CCC2 | inconclusive: 10 µM [quencher, side channel, partial curve] | – |
| O=C(NCCc1ccccc1)c1ccc(Cl)c([N+](=O)[O-])c1 | inconclusive: 12.6 µM [quencher, side channel, partial curve] | – |
